# In patent US20190275125A1:
# Target: Biosimilar (BS) bapineuzumab
# Assay: MSD inhibition assay, abeta 1-28 coated plates
# Chain of Biosimilar (BS) bapineuzumab (chain, as listed by the source, chain 1 of 2): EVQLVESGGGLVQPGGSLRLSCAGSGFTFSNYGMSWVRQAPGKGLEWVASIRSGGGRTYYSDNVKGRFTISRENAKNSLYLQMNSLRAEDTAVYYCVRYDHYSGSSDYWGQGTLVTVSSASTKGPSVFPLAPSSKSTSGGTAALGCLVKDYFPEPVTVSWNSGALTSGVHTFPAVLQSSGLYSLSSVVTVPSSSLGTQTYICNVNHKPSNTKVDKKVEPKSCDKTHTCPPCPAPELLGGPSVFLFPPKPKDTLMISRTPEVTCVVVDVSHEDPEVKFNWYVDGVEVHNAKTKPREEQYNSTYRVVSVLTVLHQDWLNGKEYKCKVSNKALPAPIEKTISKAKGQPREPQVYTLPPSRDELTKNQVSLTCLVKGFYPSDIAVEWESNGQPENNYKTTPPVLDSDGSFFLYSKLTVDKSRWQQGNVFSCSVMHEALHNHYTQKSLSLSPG
# Chain of Biosimilar (BS) bapineuzumab (chain, as listed by the source, chain 2 of 2): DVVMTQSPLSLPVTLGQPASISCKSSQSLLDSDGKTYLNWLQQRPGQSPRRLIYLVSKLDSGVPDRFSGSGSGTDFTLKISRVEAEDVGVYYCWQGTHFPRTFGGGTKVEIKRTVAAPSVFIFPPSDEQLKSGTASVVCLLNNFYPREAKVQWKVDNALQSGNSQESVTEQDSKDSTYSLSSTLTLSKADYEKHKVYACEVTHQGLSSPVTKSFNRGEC
substance,measurement,value
"abeta […] (the N-terminal […] of abeta) (a stretch of the chain, chain not printed) (peptide; modification not given)",IC50,30 nM
